Experimental findings from article PMC6919601, “Identification of Plasmodium dipeptidyl aminopeptidase allosteric inhibitors by high throughput screening” (PLoS ONE, 2019) are described below.

Where “and” joins values, the source holds several entries; their conditions need not be identical. Identical values can stand only once. Hit rate of the full screen: of about 110,000 compounds, about 230 (0.21%) showed an effect of 50% or more. The list shows a part of the results.
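Also: 30 min substrate incubation versus DMSO and 10 µM JCP410 controls.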

The target of the assay is DPAP1 (Plasmodium falciparum, UniProt Q8IIJ9). Put plainly: primary screen, percent inhibition; read by cleavage of a fluorogenic dipeptide substrate; higher = more effect of the substance. The arrangement: species or system P. falciparum D10 trophozoite lysates; single well.
Chain of DPAP1 (Q8IIJ9 whole entry, looked up): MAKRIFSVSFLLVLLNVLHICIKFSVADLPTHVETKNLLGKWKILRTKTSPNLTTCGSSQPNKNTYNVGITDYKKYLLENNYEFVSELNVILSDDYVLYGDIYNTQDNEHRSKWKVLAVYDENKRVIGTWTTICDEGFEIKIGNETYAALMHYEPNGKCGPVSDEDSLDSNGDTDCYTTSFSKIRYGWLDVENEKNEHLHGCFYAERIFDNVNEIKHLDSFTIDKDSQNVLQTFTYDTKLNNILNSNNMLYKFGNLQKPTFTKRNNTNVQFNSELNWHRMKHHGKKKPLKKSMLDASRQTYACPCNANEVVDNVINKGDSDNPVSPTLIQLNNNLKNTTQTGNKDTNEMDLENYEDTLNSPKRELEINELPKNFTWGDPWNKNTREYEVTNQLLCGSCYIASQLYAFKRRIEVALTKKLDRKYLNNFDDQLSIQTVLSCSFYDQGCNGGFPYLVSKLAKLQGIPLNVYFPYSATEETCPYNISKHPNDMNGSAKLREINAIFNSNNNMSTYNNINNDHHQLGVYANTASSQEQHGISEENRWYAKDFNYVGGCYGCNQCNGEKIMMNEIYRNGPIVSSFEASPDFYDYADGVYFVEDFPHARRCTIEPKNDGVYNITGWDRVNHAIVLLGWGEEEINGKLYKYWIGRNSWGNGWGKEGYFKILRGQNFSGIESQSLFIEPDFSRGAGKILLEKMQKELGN
Turning to `Cn1c(=O)c2ncn(CC(=O)N3CCN(Cc4ccccc4)CC3)c2n(C)c1=O`, the “% Inhibition @ 10 uM” value is listed as -8.09%. `CC(C)CCP(=O)(O)c1ccccc1`: the “% Inhibition @ 10 uM” value is listed as -5.94%. To `C/C(=C\c1ccccc1)CN1CCN(c2ccccc2F)CC1` belongs -3.57%. On to `Cn1c(SCC(=O)NCCO)nc2ccccc2c1=O`, for which the “% Inhibition @ 10 uM” value is -6.74%. Next, `CCn1c(SCc2c(C)ccc3ccccc23)nc2c1c(=O)n(C)c(=O)n2C`: 3.25%; `CCOc1ccc(C2Nn3c(nnc3-c3ccccc3)SC2C(=O)N(CC)CC)cc1` (stereo not shown): 0.0289%; `CCOC(=O)c1cc(-c2ccc(C)cc2)n(CC(=O)NC(C)CC)c1C` (stereo not shown): 4.88%.

As for `OCCNCc1ccccc1OCc1ccc(Cl)cc1Cl`, the “% Inhibition @ 10 uM” value was -4.97%. `O=[N+]([O-])c1c(NCCO)cc(Cl)c2nonc12`: the “% Inhibition @ 10 uM” value is on record as 5.66%. As to `NS(=O)(=O)c1ccc(CCNC(=O)C2CCCN(S(=O)(=O)N3CCCCC3)C2)cc1` (stereo not shown), the “% Inhibition @ 10 uM” value is recorded as -1.38%.

`COc1ccc(C(=O)Nc2ccncc2)c(OC)c1`: the “% Inhibition @ 10 uM” value is -4.24%. For `O=S(=O)(Nc1nc2ccccc2nc1Nc1ccccc1)c1ccccc1`, the “% Inhibition @ 10 uM” value was -0.128%. Next, `COc1cccc(-c2nnc3sc(NC(=O)OCC(C)C)nn23)c1`: -2.48%. On to `C=CCc1ccccc1OCC(O)CN1CCN(CCO)CC1` (stereo not shown), for which the “% Inhibition @ 10 uM” value amounted to 4.67%. As for `CCOCCCNC(=O)C(C)n1c2ccccc2c2cnn(C)c(=O)c21` (stereo not shown), the “% Inhibition @ 10 uM” value is -3.79%. Turning to `CCN1CCCC1CNC(=O)CCc1nc(-c2ccc(OC)cc2)no1` (stereo not shown), the “% Inhibition @ 10 uM” value is -0.704%.

For the compound `CCOC(=O)C1=C(c2ccccc2)N=C(S)NC1c1ccc(Cl)cc1` (stereo not shown), the “% Inhibition @ 10 uM” value is recorded as -0.357%.

Consider `O=C1NC(=S)NC(=O)C1=Cc1ccncc1`, for which the “% Inhibition @ 10 uM” value was -4.08%. To `NC(=O)C12CCCC(Br)(CCC1)C2` belongs 6.4%; to `NC(=O)C1CCN(C(=O)Cn2ncc3c4ccccc4n(Cc4ccccc4F)c3c2=O)CC1`, -1.58%; to `COc1ccc(-n2c3c(c(=O)[nH]c2=O)C(NC(=O)c2ccco2)(C(F)(F)F)C(=O)N3)cc1` (stereo not shown), 1.93%. In the case of `O=C(O)CNC(=O)c1ccc2c(c1)C1C=CCC1C(c1ccccc1Cl)N2` (stereo not shown), the “% Inhibition @ 10 uM” value was -1.38% and 6.19%. Take `COC(=O)/C(C#N)=C/c1c(OC)ccc2ccccc12`: the “% Inhibition @ 10 uM” value is -3.78%. To `O=C(CCC(=O)n1ncc2ccc(Cl)cc21)NCc1cccnc1` belongs 5.39%; to `CC(C)Oc1ccc(CNC(=O)C2CCCN(S(=O)(=O)N3CCOCC3)C2)cc1` (stereo not shown), -3.16%.

Consider `CC(Cc1ccc(F)cc1)N[C@H]1CCCCNC1=O` (stereo partly shown), for which the “% Inhibition @ 10 uM” value was -4.75%. To `CCC1CCCCN1S(=O)(=O)c1ccc([N+](=O)[O-])cc1` (stereo not shown) belongs -2.42%; to `COc1ccc(-c2c(C)oc3cc(O)cc(O)c3c2=O)cc1OC`, 2.31%; to `N#CC(/C=C/c1ccccc1)N1CCOCC1` (stereo not shown), -7.25%.

Regarding `O=S(=O)(NCC(c1ccccc1)n1cc(-c2ccccc2)nn1)c1ccc(Cl)cc1` (stereo not shown), the “% Inhibition @ 10 uM” value is listed as 6.96%. In the case of `CCCCCCc1cc(C=O)c(O)cc1O`, the “% Inhibition @ 10 uM” value is given as 0.0345%.

For `CCOc1ccc(C2=C/C(=C3/N=C(C)OC3=O)c3ccccc3O2)cc1`, the “% Inhibition @ 10 uM” value was -3.33%. For the compound `Cc1cccc(C)c1OCC(O)Cn1c[n+](C)c2ccccc21` (stereo not shown), the “% Inhibition @ 10 uM” value is given as -2.87%. Consider `NC1=NC(=O)/C(=C\c2ccc3ccccc3c2)S1`, for which the “% Inhibition @ 10 uM” value was -6.67%. Turning to `Cc1c(Cl)cccc1NC(=O)c1ccncc1`, the “% Inhibition @ 10 uM” value is 1.27%. As for `C#CCn1cc(/C=C2\NC(=O)NC2=O)c2ccccc21`, the “% Inhibition @ 10 uM” value is given as -1.47%. `CC(C)c1ccc(/C=C(\C#N)c2nc(O)c3ccccc3n2)cc1`: the “% Inhibition @ 10 uM” value was -4.93%.

Regarding `CC1CCCN(S(=O)(=O)c2ccc(F)c(C(=O)NC3CCCCCC3)c2)C1` (stereo not shown), the “% Inhibition @ 10 uM” value is reported as -0.256%. As to `O=[N+]([O-])c1ccc(Cl)cc1CN1CCCCCC1`, the “% Inhibition @ 10 uM” value is listed as -4.35%. As to `COC(=O)c1ccccc1-c1ccc(/C=C2\C(=O)N(C)C(=O)C(C#N)=C2C)o1`, the “% Inhibition @ 10 uM” value is 3.8%. On to `COc1ccc(-c2cc(C)no2)cc1S(=O)(=O)NC1CCCCCCC1`, for which the “% Inhibition @ 10 uM” value was -6.86%.

Turning to `COc1ccc(CCn2c(=O)c3cccnc3n(Cc3ccccc3F)c2=O)cc1OC`, the “% Inhibition @ 10 uM” value is on record as -1.66%. Turning to `CC(=O)Nc1ccc(NC(=O)c2ccc(CN3CCc4ccccc4C3)cc2)cc1`, the “% Inhibition @ 10 uM” value is on record as 3.9%. Next, `O=C(NC1CCN(c2ncccn2)CC1)C1CCCN(c2cnccn2)C1` (stereo not shown): -4.71%; `Cc1ccc(OCC(O)CNS(=O)(=O)c2ccccc2C(=O)O)cc1` (stereo not shown): -1.75%. Consider `CCCOc1ccc(C2C3=C(O)CCCC3=Nc3nn(-c4ccccc4)c(O)c32)cc1OC` (stereo not shown), for which the “% Inhibition @ 10 uM” value is given as -5%. As to `CCOC(=O)C1=C(C)N(CC(C)C)C(=O)/C1=C\c1ccc(Cl)c(Cl)c1`, the “% Inhibition @ 10 uM” value is -1.6%. For the compound `CCN1CCN(Cc2cc(Br)c(OC)cc2OC)CC1`, the “% Inhibition @ 10 uM” value was -1.86%.

With `COc1ccccc1/C=C/c1[nH]c(=O)[nH]c(=O)c1[N+](=O)[O-]`, the “% Inhibition @ 10 uM” value is on record as -3.35%. To `O=C(NCCc1ccsc1)c1ccc2c(Cl)c3c(nc2c1)CCCC3` belongs -5.58%; to `CC(C)CCOc1ccc(OCC(=O)Nc2nc3ccccc3[nH]2)cc1`, 0.389%. In the case of `CC(=O)Nc1ccc(NC(=O)CCc2ccc(S(=O)(=O)NC3CCCCC3)cc2)cc1`, the “% Inhibition @ 10 uM” value is on record as 1.84%.

Turning to `O=C(c1c(F)cccc1F)N1CCN(c2ccccc2F)CC1`, the “% Inhibition @ 10 uM” value turned out to be 7.55%. In the case of `COc1ccc(CC(=O)Nc2ccc(OC)cc2)cc1`, the “% Inhibition @ 10 uM” value is on record as -1.17%. `CC(C)(C)NC(=O)COc1ccc(CNC23CC4CC(CC(C4)C2)C3)cc1`: the “% Inhibition @ 10 uM” value is given as -9.53%. `COc1ccc(C2NC(S)=NC3=C2CCc2cc(OC)ccc23)cc1` (stereo not shown): the “% Inhibition @ 10 uM” value was 8.53%.

As for `O=C(/C=C\c1ccccc1)Nc1c(-c2cccs2)nc2ccccn12`, the “% Inhibition @ 10 uM” value was -4.23%. Regarding `O=C(O)COc1ccccc1/C=C1/SC(=O)N(CC(=O)N2CCc3ccccc3C2)C1=O`, the “% Inhibition @ 10 uM” value came out at 8.56%.

For the compound `N#Cc1c(NC(=S)NC(=O)/C=C/c2ccccc2)sc2c1CCCC2`, the “% Inhibition @ 10 uM” value is recorded as -3.98%. On to `CCSc1ncc(Cl)c(C(=O)NCCc2ccc(S(N)(=O)=O)cc2)n1`, for which the “% Inhibition @ 10 uM” value was -2.85%.

On to `CC(C)c1ccc(OCc2ccc(C(=O)NCc3ccco3)o2)cc1`, for which the “% Inhibition @ 10 uM” value is 6.82%. Take `CC(=O)NC(=O)CC(=O)c1ccccc1`: the “% Inhibition @ 10 uM” value amounted to 0.986%. On to `O=C(NCCC1=CCCCC1)c1cc(-c2ccccc2)[nH]n1`, for which the “% Inhibition @ 10 uM” value is 0.00226%. With `O=C(O)c1ccc2[nH]c(-c3cc4cc(Br)ccc4oc3=O)nc2c1`, the “% Inhibition @ 10 uM” value was -0.617%.
